# The full ranking holds about 33,000 sequences; the median of “E-score (-0.5 to 0.5)” is about -0.021, and the highest 2% start at about 0.32. Some of the results follow.
# Target: T1, Zap1 (UniProt P47043)
# T1 sequence: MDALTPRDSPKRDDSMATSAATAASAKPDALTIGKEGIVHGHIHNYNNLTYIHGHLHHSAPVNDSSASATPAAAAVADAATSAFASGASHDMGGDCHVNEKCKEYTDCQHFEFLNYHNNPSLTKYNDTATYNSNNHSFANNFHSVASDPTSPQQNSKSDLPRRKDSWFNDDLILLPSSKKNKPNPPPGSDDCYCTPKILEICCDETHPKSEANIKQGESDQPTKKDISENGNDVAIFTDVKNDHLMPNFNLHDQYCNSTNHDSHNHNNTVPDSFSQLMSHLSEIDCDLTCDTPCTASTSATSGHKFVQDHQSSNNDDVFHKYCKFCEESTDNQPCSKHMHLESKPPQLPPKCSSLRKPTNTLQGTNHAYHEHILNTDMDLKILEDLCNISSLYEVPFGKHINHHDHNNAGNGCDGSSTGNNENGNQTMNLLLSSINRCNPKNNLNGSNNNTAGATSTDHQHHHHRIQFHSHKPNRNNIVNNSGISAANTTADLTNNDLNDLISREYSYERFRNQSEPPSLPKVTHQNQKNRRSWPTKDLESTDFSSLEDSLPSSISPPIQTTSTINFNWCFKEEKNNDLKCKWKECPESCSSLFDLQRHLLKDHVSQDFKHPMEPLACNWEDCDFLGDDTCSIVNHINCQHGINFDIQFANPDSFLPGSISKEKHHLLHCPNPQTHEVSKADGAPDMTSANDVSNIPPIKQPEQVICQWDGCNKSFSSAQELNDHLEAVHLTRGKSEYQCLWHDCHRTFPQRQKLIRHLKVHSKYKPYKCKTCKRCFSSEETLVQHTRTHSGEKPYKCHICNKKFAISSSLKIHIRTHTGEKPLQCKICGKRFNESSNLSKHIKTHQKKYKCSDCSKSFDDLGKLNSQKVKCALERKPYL
# Experiment: PBM E-score (8-mer binding enrichment) (E-score (-0.5 to 0.5)); higher = stronger / more preferred TF binding; most listed sequences are background and not binding sites
# Conditions: protein concentration: 200 nM; construct: GST-full length
# Protocol: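 Universal 'all 10-mer' protein binding microarrays (Agilent AMADID 015681) probed with GST-tagged S. cerevisiae TFs (full-length or DBD) made by in vitro transcription/translation (PURExpress), about 100-200 nM. Bound TF was detected with fluorescent anti-GST. Each ungapped 8-mer (which stands for itself and its reverse complement) is scored by the PBM enrichment score (E-score), a modified Wilcoxon-Mann-Whitney statistic from -0.5 to +0.5, computed with the Universal PBM Analysis Suite. Scale: above 0.35 generally sequence-specific binding.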
row,Sequence,PBM E-score
1,AACTAGGA,-0.00727
2,GCTAGGCC,-0.192
3,AACTATGG,0.0897
4,AGTATTAT,0.124
5,AGAACTTC,-0.175
6,ACCAGAGA,0.0732
7,GCACTAAA,0.0634
8,GGCGAATA,-0.193
9,CAGCTGGA,-0.131
10,ACTGGACG,-0.266
11,GTTAACGA,0.0943
12,AGATTGTC,-0.198
13,GGAGTCAA,-0.159
14,CTCTGCGA,-0.0931
15,AAATACGT,-0.131
16,CTCGTTAC,-0.0784
17,TATGTCGA,-0.115
18,CCGACCCC,-0.105
19,AAGGCTCC,-0.262
20,AACGAACG,-0.0519
21,CTTGTCTA,0.0288
22,CTATCACC,0.121
23,AGACGCTC,-0.261
24,AGATCCCA,-0.222

row,Sequence,PBM E-score
1,CTTTACAA,0.115
2,CTTCTTGA,0.0838
3,GGCACGCA,-0.139
4,CCCCTAGC,-0.167
5,ACAGTAAC,0.156
6,ACGCGGGG,0.165
7,CACTGCTA,-0.102
8,AACTAGTG,-0.0702
9,CGTCCGAG,-0.104
10,CAATCCTA,-0.0343
11,AGTCGGGG,-0.127
12,AGACCTAG,-0.123
13,ATAGGCGA,-0.11
14,GGCTGACC,-0.0633
15,CGGTCTAC,-0.149
16,AACAATCG,-0.073
17,GATAACCA,0.426
18,CGTTAGTA,0.0365
19,CCTTAAGC,0.0365
20,CGACGAGC,-0.229
21,ACTGGGGC,-0.176
22,TCGGAGAA,-0.0145
23,AGGACATG,-0.0235
24,TCGAGCAA,0.0473

row,Sequence,PBM E-score
1,CGGACTTA,-0.0546
2,GACAGGTC,-0.207
3,GCAGGCGA,-0.224
4,CAGCGTTA,0.0255
5,TAAATAAA,0.13
6,ACTAAGTA,-0.0162
7,CCGGCCAC,0.185
8,AAGGGCGC,0.0237
9,AGGTATGC,0.116
10,CATCTACC,0.021
11,AACACGGA,-0.028
12,ATAGTGCG,-0.0953
13,CCCTCTGC,-0.33
14,CCGATACA,-0.00212
15,CTCAAACC,0.0963
16,AATGGCGG,-0.0885
17,ATGCTGCG,-0.311
18,ACTAGTTG,-0.226
19,GTACAGAC,-0.0812
20,CCATCTTA,-0.129
21,CACAGTAG,0.0475
22,CGAGGGAG,-0.197
23,AATCGGTC,-0.0793
24,CAGCAGCA,-0.198

row,Sequence,PBM E-score
1,AAGTCTGG,-0.00476
2,ATCATATG,0.12
3,AGTCTGCA,-0.297
4,GACTCGCA,-0.0704
5,GATAACGA,0.00419
6,ATCCATCG,-0.183
7,ATGTAGAG,0.041
8,CCCTCTAG,0.0878
9,CAAAATTG,0.141
10,CACAATGA,0.0991
11,AACCCGGC,0.254
12,AGTCGGGA,-0.192
13,GACTGCGC,-0.23
14,TAGGGGCA,-0.0624
15,CATACTCA,-0.0395
16,CTTTAAAC,0.0184
17,CGGATGAA,0.127
18,GCTCTTCA,-0.279
19,ACCTCGTA,0.189
20,CGCCACAC,-0.147
21,ATAAAACA,0.0976
22,CCATAGCA,-0.14

# — the supplement of paper PMC3334620
